# Laboratory results published in the supplement of paper PMC12217912.
# This is one part of the list. The full chains were built here from the parent and the listed change. Inactive controls read about 0.05.
# B1: TEV protease; numbered along this chain (parent)
# chain: MGESLFKGPRDYNPISSSICHLTNESDGHTTSLYGIGFGPFIITNKHLFRRNNGTLVVQSLHGVFKVKDTTTLQQHLVDGRDMIIIRMPKDFPPFPQKLKFREPQREERICLVTTNFQTKSMSSMVSDTSCTFPSGDGIFWKHWIQTKDGQCGSPLVSTRDGFIVGIHSASNFTNTNNYFTSVPKNFMELLTNQEAQQWVSGWRLNADSVLWGGHKVFMVKPEEPFQPVKEATQL
# Variants of: B1
# Experiment: raw area under fraction-flipped curve 0-4 h after induction (AUC4h, not background-subtracted), DNA-recorder readout of cleavage of the substrate (dimensionless); higher = more cleavage of the substrate by the protease variant
# Details: temperature: 34 °C; time window: 0-4 h after rhamnose induction
# Procedure: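 In vivo DNA recorder in E. coli TOP10(DE3) ΔrhaA at 34 °C. Each TEVp single-site mutant (parent TEVp 0) is paired with a single-site variant of the 7-mer TEVs (canonical ENLYFQ|S). The substrate sits between flexible linkers in a Bxb1-sfGFP-TEVs-SsrA fusion, so cleavage stabilises Bxb1 and speeds flipping of a recombination array, read by NGS. The value is the raw area under the fraction-flipped curve over 0-4 h after rhamnose induction (AUC4h), with ≥20 reads per time point. It is not background-subtracted; inactive controls average about 0.047.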
# 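Also: Bxb1 expression induced with 0.2% (w/v) L-rhamnose at OD600 near 0.5, cultures sampled hourly, flipped fraction per protease–substrate barcode pair counted by paired-end Illumina sequencing.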
Variant,area with substrate ENAYFQS,area with substrate ENCYFQS,area with substrate ENDYFQS,area with substrate ENEYFQS,area with substrate ENFYFQS,area with substrate ENKYFQS,area with substrate ENMYFQS,area with substrate ENNYFQS,area with substrate ENPYFQS,area with substrate ENQYFQS,area with substrate ENRYFQS,area with substrate ENSYFQS,area with substrate ENTYFQS,area with substrate ENWYFQS,area with substrate ENYYFQS,area with substrate ENGYFQS,area with substrate ENHYFQS,area with substrate ENVYFQS,area with substrate ENIYFQS
T192R,0.0591,0.05,0.0618,0.0563,0.0634,0.0715,0.0495,0.0633,0.0634,0.055,0.0517,0.0589,0.0337,0.0244,0.0425,,,,
T192S,0.0566,0.0567,0.083,0.0424,0.0583,,0.0734,,0.0741,0.0723,0.0503,0.0718,,,0.0631,0.0547,0.0691,0.0745,
N193S,0.052,,,0.0599,,,,0.0548,,,,,,,,,,,
Q194G,0.0622,0.0381,0.0584,0.0515,,,0.0773,0.0517,0.0359,0.0601,0.0523,0.0553,0.0579,0.0343,0.0725,0.0587,0.0609,0.0754,0.12
Q197Y,0.0647,0.0621,0.0614,,,,,,,0.0562,,0.0087,0.0659,,,0.0592,,,
Q198F,0.0634,0.0615,,0.0596,0.0596,0.0588,0.0728,0.0684,0.045,0.0616,0.0531,0.0537,0.0615,,0.0549,0.0709,0.0627,0.0614,
W199G,0.0574,0.0548,0.0765,0.0627,,0.0492,0.0484,0.0627,,0.0665,,0.0584,0.0593,,,0.0516,0.0594,0.0493,
V200C,0.0665,0.0657,,0.0602,0.0607,,,0.0502,0.0563,0.0614,0.067,0.0613,0.0552,0.0551,,0.0655,0.0289,0.0757,0.0955
V200Y,0.0588,,,0.0639,0.0557,0.0587,0.0605,0.0627,,0.0568,0.0633,0.0705,,,0.0783,0.0686,0.0639,0.0652,0.0812
S201D,0.0696,,0.0628,0.0595,0.0647,,0.0486,0.0475,0.0465,0.0628,,0.0682,0.0845,0.0543,,0.054,0.0559,0.0725,0.0432
G202F,0.0601,0.0636,0.0575,0.0534,0.0651,0.0633,0.0573,0.0467,,0.055,0.0593,0.0888,0.0514,,0.103,0.0615,0.0712,0.0526,0.0565
G202K,0.068,,0.0751,0.0646,0.0391,,,0.0704,,,,,,0.0699,,,,,0.0684
R204I,0.0602,0.0672,0.0559,0.0675,0.059,0.064,0.0596,0.0551,0.0546,0.0527,0.0827,0.0538,0.0663,0.0555,0.051,0.0583,0.0594,0.0797,0.099
